Data: the supplement of paper PMC11417369
This is one part of the list.

test system: PfHDP1 homeodomain (GST-tagged); experiment: gcPBM binding intensity (ln(normalized median fluorescence intensity)); higher = stronger DNA binding
Procedure, shortened: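 GST-tagged P. falciparum DNA-binding domains produced in E. coli were incubated for 1 h on an Agilent 4 × 180k array of primer-extended double-stranded 36-bp intergenic genomic probes with negative controls. Binding intensity is the highest Masliner-normalised natural-log median intensity across replicate spots of either probe orientation, with bound protein detected by Alexa488 anti-GST antibody at 488 nm.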

| Sequence | gcPBM binding intensity (ln) |
| --- | --- |
| AAGCATCCTACTGATTGTACATATATATATATATAT [XGTACX_site2150] | 9.18 |
| TAATATATATAACAAGTGCAAAAAAATATAGATATT [GTGCAC_site9625] | 8.6 |
| TTAGGTTATAAATACACACACAAAAGAAAAAAAAAA [CACACA_site5625] | 6.71 |
| ACCCAAAATATATTCACACAAAAAATATTAAAAATA [CACACA_site5433] | 6.4 |
| TTTGAAAAAAAATATTGTACACGTGAATAAAGTATT [XGTACX_site644] | 6.68 |
| AAAAATAAATATACATGTACATAATAATAATATATA [XGTACX_site8359] | 6.57 |
| TTGCATCTATTTTTGAGTACACAATGAGAATAATTA [XGTACX_site7171] | 6.75 |
| TTATTATATATGTTCACATAAATACATAAATATATA [GTGCAC_negctrl_site529] | 6.2 |
| TTAAAAAAGTAATTAACACACAATAATGTAATGCAT [CACACA_site4176] | 6.53 |
| AAAAAAAAAAGACACACACACACATACACATACATA [CACACA_site7362] | 7.1 |
| TATATATATATATATATATATATATATATAATTTGA [XGTACX_negctrl_site3] | 9.41 |
| TATTTTATTTTCCGAAGTACAAAAGCAAAAAAAAAC [XGTACX_site103] | 6.84 |
| TATATTTATATAATATGTACATATTTTTTAATATTT [XGTACX_site3834] | 6.41 |
| AGCTAAAATATTTTTGCACACGATTTTTTTTTTTTT [CACACA_site1140] | 9.82 |
| CGCGAACATACATACACACACATATATATATATGTA [CACACA_site205] | 6.98 |
| TTTTTTTTTTTTTGAACACACATTATTAACTTTTAT [CACACA_site6281] | 6.38 |
| AAAAAAAAGTTATATACACACATATAAATATAAATA [CACACA_site6683] | 6.39 |
| TATATATTTTATATATGTACATATTTATATGTTTCT [XGTACX_site1818] | 6.28 |
| AAAAATATTAAAAGGCGTACAATACCTGTATGCAAC [XGTACX_site6069] | 6.12 |
| CATGTAAAATATTAAAGTACATGATTATATATATAT [XGTACX_site7486] | 8.65 |
| TATAAATTTATACCAGTGCATTTTGAAATATATATA | 8.42 |
| TGGAACCATAAAAAGTGTACACATATAAAAAATATG [XGTACX_site96] | 7.25 |
| ATAATATGAGTCCCACAAAATAGACCATACGAATAT [CACACA_negctrl_site50] | 6.3 |

| Sequence | gcPBM binding intensity (ln) |
| --- | --- |
| AAATAATACATTCGTACTACACATATATATTAAATA [XGTACX_site7806] | 6.59 |
| TAAAATGTTATAAGAACATGCAATTCCTTTTATTAT [TGCATGCA_site408] | 6.09 |
| AATATATACATATATACACACACATATATATATATA [CACACA_site8907] | 9.2 |
| ATTTTAATTTTGTATACACACATTTGAATTATTAAT [CACACA_site3528] | 6.87 |
| TATATGTCCATATTTCCACACACATATTATTTTTAT [CACACA_site9266] | 6.81 |
| AGAGAGAACGGTATAACATGCGATAAATTTTAGAAG [TGCATGCA_site357] | 6.58 |
| TTTTTTCAATAAATAATCGTATATTGAATAATAATA [CACACA_negctrl_site822] | 6.08 |
| ATGCACGGAAAAATATGTACTTAATTTCAATAATAT [XGTACX_site8311] | 7.65 |
| CGGACATACTAACGGACACACGTAAGAAAAAAAAAG [CACACA_site4504] | 6.4 |
| TATTAATTTTTCCTTTTTTTTTTACCCCTTTGTACA [CACACA_negctrl_site947] | 6.15 |
| ATATATTATATTATATGTACTTAAAAAAGTGCAAAG [XGTACX_site318] | 9.16 |
| TATATTCAATTTTTGGTGCGTAAATTAATACAAACA [GTGCAC_site9764] | 8.27 |
| CACATACACCCATACACACACATATATATTAAGATA [CACACA_site4459] | 7.47 |
| AATACATACAGACACACACACACATATATATATATA [CACACA_site3558] | 9.1 |
| AAACTTAATATCGGTACACACACAAGATAAGAATTA [CACACA_site8200] | 6.48 |
| ATATATATATAGTGCACACTTAAGAATATAAAGAGG [CACACA_site1151] | 10.7 |
| CTATAAATATTTTATTGTACACACTTTTTATGAATG [XGTACX_site6711] | 6.92 |
| AAAATTTTTAGTTATACACACAACATAGAAAATATT [CACACA_site328] | 6.55 |
| TTACATGTAAAAGGTACACACATTATGTATACAAAT [CACACA_site1117] | 6.79 |
| TTTTTTTTTTTTTTTTGTCCGTACTGCTTTGTGTTT [XGTACX_site3687] | 6 |
| ATGATAAACATGGATACACACATATAGATTGCATAT [CACACA_site6843] | 7.08 |
| TTATTAAATTCATAAGTGCATTTATGATTAATTTTT [GTGCAC_site9749] | 8.43 |
| ATTTCTCTATCGTAATGTACATAAAAAAGAAAAACA [XGTACX_site6374] | 6.63 |

| Sequence | gcPBM binding intensity (ln) |
| --- | --- |
| ATATATATTAACAATACACACGTGTATACCTTATTG [CACACA_site5258] | 6.92 |
| TTCATCTTAAAATTGGGTACATAACACAAAGTATAA [XGTACX_site1894] | 6.34 |
| CCTATAAATGCATTCACACATATATATTTATATTAT [CACACA_site6086] | 6.87 |
| TCTAATTACAAAAACATACACACAAAAAAAAAAAAA [CACACA_site3783] | 6.52 |
| ATGTACAAAATAAGCACACACAAAAAAAAAAAAAAT [CACACA_site2998] | 6.45 |
| TCAAAAATAAAGATCACACATATATATATATATATA [CACACA_site4381] | 9.54 |
| CTTAATTTAATGAAATGTACATATAAAAATATTATA [XGTACX_site3303] | 6.37 |
| TTTGATCGATGGATTTAACACACAAAAAAAAAAAAA [CACACA_site9279] | 6.32 |
| GTAAGAAACAGACACACACACATATATATATATATA [CACACA_site794] | 9.42 |
| AATAATTTTATCGGTACACACTGTATGCATAATATT [CACACA_site4364] | 7.02 |
| GAACAGTTTGTTTAGTGTACTTTTTTTTTTTTTTTT [XGTACX_site8881] | 6.46 |
| TTTATGACTTGAAAAAGTACACATATATTTATGCAA [XGTACX_site5451] | 6.31 |
| AATATAGAAATAAATATATCACATTTGTGTTTAAAC [XGTACX_negctrl_site68] | 6.15 |
| TACCAAATTTATTCTTGTACATATATATATATATAT [XGTACX_site4832] | 9.29 |
| TATATATATATACCTTGTACTTACATTCGCATATAA [XGTACX_site2466] | 9.08 |
| AAAAAAAAAAAAAAAGCACACACACCGATGTGTATA [CACACA_site8224] | 6.63 |
| CCATTACCATATAAAACACACAAACATACATACATA [CACACA_site5952] | 6.71 |
| GTATAATTATGTGCACGTACATATTTTATTATATAT [XGTACX_site8586] | 10.9 |
| ACATAAATATATGACACACACACATATTATATATAT [CACACA_site3065] | 7.1 |
| TTGTTTTCTTTTTCTTTTCTTTTTCTTTTTTCTTTT [GTGCAC_negctrl_site629] | 6.08 |
| TATATATATATAAAGACACACATCTATAGAATGTTA [CACACA_site2557] | 8.9 |
| TATTTATATTTATACACACACACAAAAAAAAAAAAA [CACACA_site6817] | 6.82 |
| ATATGTTCCGAAGGTTGTACACACATAGAAATATAC [XGTACX_site8227] | 7.1 |

| Sequence | gcPBM binding intensity (ln) |
| --- | --- |
| AAAATATATACAATATGTACATATATATATATATAT [XGTACX_site1898] | 9.44 |
| GTACGTTAGATATATACACACATACATAATAAAGAA [CACACA_site7327] | 7.14 |
| TTACCCATTCCCTTTACATGCAATTTGTATTAATAA [TGCATGCA_site412] | 7.42 |
| TTAATTCTACTTATTACACACATATTAAGCAAAAAT [CACACA_site4921] | 6.62 |
| ATATATATTTATAGGTGTACAAAATACTATTTTAGG [XGTACX_site8499] | 6.62 |
| AAAAGGAAAAATATCACACATATATATATATATATA [CACACA_site5586] | 9.51 |
| AATAAGTAACAAAATACACACATATAGGTAATTATA [CACACA_site6949] | 6.58 |
| ATTATTATACACAAATGTACATGTGAATTTTTTTTC [XGTACX_site6982] | 7.07 |
| TAAATATATAAATACACACACATACACAAAAAAAAA [CACACA_site5890] | 7.09 |
| TATACACCCTAAAATACACACACACCCACCCATATA [CACACA_site9380] | 7.31 |
| TTTTTTTTTCTTTCTTTCTTTTGTAAAAACCTCAAA [CACACA_negctrl_site723] | 6.01 |
| ATATGTATATATAAAAGTACGCGTAAAAAAAAAAAA [XGTACX_site5377] | 6.8 |
| TCTTTTTATATTTATTGTACATAAAAAATAAAACAT [XGTACX_site4073] | 6.56 |
| TATAAACCAATGAACACACAAACATATATATATATA [CACACA_site3168] | 9.26 |
| ATAAAATAATCTTATGCACACCAAAAATTTATATAA [CACACA_site8332] | 10.4 |
| ATATATCAAAAATGATGACATAAATATATTAATTTA [TGCATGCA_negctrl_site259] | 6.16 |
| TATCTGTATGTATGTACACACAAAAAATGGAATATA [CACACA_site5947] | 6.76 |
| TTTTTGTAAAATAAACGTACAAAACAATTGTTCATT [XGTACX_site6537] | 6.5 |
| TAATATATATATTTATGTACATATAAATTTTCTCCT [XGTACX_site4496] | 6.58 |
| TATTTTAAAACAAAAATATAATTTCATAAAAATATA [CACACA_negctrl_site394] | 5.88 |
